Data reported in PubChem BioAssay AID686979 (National Center for Advancing Translational Sciences (NCATS), 2013).
About 50,000 (12%) of roughly 420,000 compounds were called active. This list was built around the results that the source calls inconclusive (neither active nor inactive); the mix of calls is not that of the screen. Calls follow the shape of the dose curve; as a rule, active = well fitted inhibition curve with a large enough effect; inconclusive = small, poorly fitted or top-dose-only effect; inactive = flat fitted curve, though single readings scatter. No potency is given beside an inconclusive call; the fits are too rough.

Assay: qHTS for Inhibitors of human tyrosyl-DNA phosphodiesterase 1 (TDP1): qHTS in cells in presence of CPT; also: nearly all actives have a fitted effect of over 55% in size
Conditions: chicken DT40 Tdp1-/-;hTDP1 cells + 20 nM CPT, ATP luminescence, 48 h; activity change, negative = growth inhibition: at 46.2 µM (top of the series) unless noted
Summary of the method: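 Cell growth measured by CellTiter-Glo luminescence after a minimum 48 h, 37 C compound exposure with 20 nM CPT in Tdp1-knockout DT40 cells stably expressing hTDP1, seeded 400/well; qHTS titration format.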
% is scaled to controls: 0 for no effect and ±100 for the full control effect; potency is read from the fitted curve at half-maximal effect; tags tell the direction and shape of the fitted curve.

SMILES	Potency	activity change, negative = growth inhibition
COc1ccc(NC(=S)NCCC2=CCCCC2)cc1OC	inconclusive [inhibitor, single point]	–
COc1ccc(/C=C/C(=O)NC(=S)NNC(=O)c2cc(OC)c(OC)c(OC)c2)cc1OC	inconclusive [inhibitor, single point]	–
CCC(C)(C)C1CCC(NC(=O)c2ccc(S(=O)(=O)N3CCOCC3)cc2)CC1 (configuration not stated)	active: 14.6 µM	–
CCOC(=O)N1CCN(CC(=O)Nc2c(C(=O)OC)[nH]c3ccccc23)CC1	inconclusive [inhibitor, single point]	–
COc1ccc(-c2ccc(C(c3c(C)[nH][nH]c3=O)c3c(C)[nH][nH]c3=O)o2)c([N+](=O)[O-])c1	inconclusive [inhibitor, single point]	–
COc1ccc(OC)c(-n2cnc3cc(C(=O)NCCc4ccccc4)ccc32)c1	inconclusive [inhibitor, partial curve]	–
CCOc1ccc(NS(=O)(=O)c2cc(C(=O)N(CC)CC(=O)NCc3cccs3)ccc2C)cc1	inconclusive [inhibitor, single point]	–
Cc1cc(N2CCN(C(=O)c3[nH]c(C(F)(F)F)nc3-c3ccccc3)CC2)c2ccccc2n1	active: 16.4 µM	–
CC(C)OC(=O)c1c(NC(=O)c2cc3nc(-c4ccccc4)cc(C(F)(F)F)n3n2)sc2c1CCCC2	inconclusive [inhibitor, partial curve]	–
CCc1ccc(C(O)(CC)C(CN2CCOCC2)c2ccccc2)cc1 (configuration not stated)	inconclusive [inhibitor, single point]	–
Cc1c2cccn2cc[n+]1C	–	inactive: -0.951%
CCCN(CC(=O)Nc1ccccc1OC)C(=O)Cc1ccc2c(c1)CCC2	active: 18.4 µM	–
Cc1ccccc1-c1nc(CN2CCC(C(=O)NCc3ccco3)CC2)c(C)o1	inconclusive [inhibitor, single point]	–
COc1ccc(C)cc1NC(=O)c1nnn(Cc2cc(C)ccc2C)c1N	inconclusive [inhibitor, partial curve]	–
Cc1ccc(OCC(=O)Nc2ccccc2C(=O)OCc2cc(=O)n3c(C)csc3n2)cc1	active: 16.4 µM	–
Cc1cc(/C=C(\C#N)C(=O)OCC(=O)Nc2ccc(OC(F)F)cc2)c(C)n1CC(C)C	inconclusive [inhibitor, single point]	–
CC(=O)O[C@]1(C(C)=O)CC[C@H]2[C@@H]3C=C(C)C4=CC(=O)CC[C@@H]4[C@H]3CC[C@@]21C	inconclusive [inhibitor, partial curve, poor fit]	–
CC(C(=O)NCc1ccc(Cl)cc1)n1ccc2cc(S(=O)(=O)N3CCCC3)ccc21 (configuration not stated)	inconclusive [inhibitor, single point]	–
CN(C)CC(CCCCC(CN(C)C)C(=O)c1ccccc1)C(=O)c1ccccc1 (configuration not stated)	active: 5.8 µM	–
COc1ccc(CCN(C)CCc2ccc(OC)c(OC)c2)cc1OC	inconclusive [inhibitor, single point]	–
COc1ccc(OCC(=O)Nc2cccc(C(=O)Nc3ccccc3C(=O)O)c2)cc1	inconclusive [inhibitor, single point]	–
CC1=C(C(=O)Nc2ccc(C)cc2C)C(c2ccc[nH]2)n2ncnc2N1 (configuration not stated)	–	inactive: 3.83%

SMILES	Potency	activity change, negative = growth inhibition
COC(=O)c1cccc(N(C(=O)c2ccco2)C(C(=O)NC2CCCC2)c2ccco2)c1 (configuration not stated)	inconclusive [inhibitor, partial curve, poor fit]	–
C/C(=N\NC(=O)C(=O)Nc1cccc(Cl)c1C)c1ccncc1	active: 20.6 µM	–
C=C[C@](C)(CC[C@@]1(C)C(C)CC(OC2OC(C)C(OC3OC(COC(C)=O)C(O)C(O)C3O)C(O)C2O)[C@@]2(C)C(C)=CCCC12)OC1OC(C)C(O[C@@H]2O[C@@H](C)C(O)C(O)[C@H]2O)C(O)C1O (some centres not stated)	–	inactive: 3.67%
CC(NS(=O)(=O)c1ccc(OCC(=O)N2CCCC2)cc1)c1ccccc1 (configuration not stated)	–	inactive: -4.52%
Cc1cccc(NC(=O)N2CCN(Cc3ccc(Cl)cc3)CC2)c1	inconclusive [inhibitor, single point]	–
CCOc1ccccc1NC(=S)N1CCN(c2cccc(C)c2C)CC1	active: 11.6 µM	–
COc1ccc(/C=C2\CCC(C3CCCC3)C2=O)cc1Cn1cccn1 (configuration not stated)	active: 18.4 µM	–
O=C(N/N=C/c1ccccn1)c1ccc(Br)o1	inconclusive [inhibitor, single point]	–
Cc1ccc(S(=O)(=O)N2CCN(C(=O)c3ccc(Br)o3)CC2)c(C)c1	inconclusive [inhibitor, single point]	–
C/C=N/NC(=O)c1cc(Br)ccc1O	–	inactive: -4.94%
[O-]/[N+](=C\c1cccc(Br)c1)c1ccccc1	inconclusive [inhibitor, single point]	–
Cc1cccc(NC(=O)CSc2nnc(-c3cc(C)n(-c4ccccc4)c3C)o2)c1C	–	inactive: -8.43%
C=CCNc1nc2cc(-c3cccc(NC(C)=O)c3)sc2c(=O)n1C	inconclusive [inhibitor, single point]	–
CC(=O)c1cccc(NC(=O)c2ccc3c(Cl)c4c(nc3c2)CCCC4)c1	–	inconclusive: -30.3% [inhibitor]
COc1cc2c(cc1OC)CN(C(=O)CCNC(=O)c1ccc(Br)cc1)CC2	inconclusive [inhibitor, single point]	–
CCc1ccc(CNC(=O)c2cnc3sc(N(CC)CC)nn3c2=O)cc1	active: 13 µM	–
C=CCc1cc(OC)ccc1OCC(O)CN1CCN(c2ccc(OC)cc2)CC1 (configuration not stated)	inconclusive [inhibitor, single point]	inconclusive: -34% [inhibitor]
CCN(CC)S(=O)(=O)c1ccc(N2CCN(C)CC2)c(NC(=O)CSCC(=O)Nc2cccc(C)c2)c1	inconclusive [inhibitor, single point]	–
COCCn1c(=O)c(-c2cccs2)nc2cnc(Oc3ccccc3)nc21	inconclusive [inhibitor, single point]	–
CSc1nc(Oc2ccc(F)cc2F)cc(C(F)(F)F)n1	–	inactive: 7.23%
Cc1onc(-c2ccccc2Cl)c1C(=O)NCc1nc(-c2ccc(C(F)(F)F)cc2)no1	inconclusive [inhibitor, single point]	–
COc1ccc(N(CC(=O)Nc2cccc(C(C)=O)c2)S(=O)(=O)c2ccc(NC(C)=O)cc2)cc1	inconclusive [inhibitor, partial curve, poor fit]	–

SMILES	Potency	activity change, negative = growth inhibition
O=S(CC1CC1(Cl)Cl)CC1CC1(Cl)Cl (configuration not stated)	–	inactive: 2.74%
CN(C(=O)c1cccc(NC(=O)C2CCCN(C(=O)OC(C)(C)C)C2)c1)C1CCC1 (configuration not stated)	active: 20.6 µM	–
CCOc1ccccc1NC(=O)Cc1cccs1	–	inactive: -0.43%
COC(=O)/C(C#N)=C/c1c(N2CCN(c3ccc(OC)cc3)CC2)nc2c(C)cccn2c1=O	inconclusive [inhibitor, single point]	–
Cc1c(C(=O)N2CCCC(C)(C(=O)NS(=O)(=O)C3CC3)C2)oc2ccccc12 (configuration not stated)	inconclusive [inhibitor, full curve]	–
COC(=O)CN1C(=S)N(c2ccc(Cl)cc2)C(=O)C1CC(=O)Nc1ccc(F)cc1 (configuration not stated)	inconclusive [inhibitor, single point]	–
Cc1oc2cc(Br)c(O)c(Br)c2c1-c1ccccc1	–	inactive: -34.6%
Cc1ccc(NC(=S)NNC(=O)CSc2nnc(-c3ccc(Cl)cc3)n2C2CCCCC2)cc1	inconclusive [inhibitor, single point]	–
O=C(CN1CC[n+]2c(-c3ccccc3)csc21)c1ccc(Br)cc1	active: 2.91 µM	–
COc1ccc(CNC(=O)Cn2nc(C)c3c(C)n(-c4ccc(C)cc4)nc3c2=O)cc1OC	–	inactive: -25.9%
O=C(Nc1cccc2cccnc12)c1ccc2sc([C@H]3C[C@H](O)[C@@H](CO)O3)nc2c1	active: 18.4 µM	–
Cc1ccc(Cl)cc1N1CCN(S(=O)(=O)c2ccc3c(c2)CC(=O)N3C)CC1	–	inconclusive: -30.4% [inhibitor]
CCOc1ccc(CCNC(=O)CN2C(=O)NC3(CCc4ccccc43)C2=O)cc1OCC (configuration not stated)	–	inactive: -17.4%
c1ccc(CSc2ncnc3c2oc2ccccc23)cc1	inconclusive [inhibitor, single point]	–
CCn1c(=S)sc2nc(C)sc21	inconclusive [inhibitor, partial curve]	–
CCCCC(CC)Cn1c(Oc2ccccc2)nc2c1c(=O)n(C)c(=O)n2C (configuration not stated)	inconclusive [inhibitor, single point]	–
CCn1c(SCC(=O)Nc2ccc(C)c(C)c2)nnc1-c1nonc1NC(C)=O	–	inconclusive: -32% [inhibitor]
COCCCNc1ncnc2c1nnn2C	inconclusive [inhibitor, full curve, poor fit]	–
COc1cccc(/C=C2\SC(=O)N(CCC(=O)N3CCCCC3CCO)C2=O)c1 (configuration not stated)	inconclusive [inhibitor, single point]	–
Cc1cccn2c(CNC3CCCc4ccccc43)c(C(=O)N3CCCCC3)nc12 (configuration not stated)	inconclusive [inhibitor, single point]	–
CCn1c(SCC(=O)NC(=O)NCc2ccco2)nc2sc(C)c(C)c2c1=O	inconclusive [inhibitor, single point]	–
CCc1nc(SCC(=O)Nc2nccs2)c2oc3ccccc3c2n1	inconclusive [inhibitor, partial curve]	–
